42 compounds from publication PMC4336329 (PLoS ONE, 2015) can be followed below.

Structures are written as SMILES. Screen size: about 310,000 compounds; about 14,000 (4.5%) showed an effect of 50% or more. Effects have a minus sign here. The list shows a part of the results.
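Further: peak tail current of the secondary pulse compared with the same well before compound.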

In this test the target is human ether-à-go-go-related gene (hERG) potassium channel (human, UniProt Q12809). Description: primary screen, population patch clamp on CHO cells stably expressing hERG.
Sequence of human ether-à-go-go-related gene (hERG) potassium channel (Q12809 whole entry, looked up): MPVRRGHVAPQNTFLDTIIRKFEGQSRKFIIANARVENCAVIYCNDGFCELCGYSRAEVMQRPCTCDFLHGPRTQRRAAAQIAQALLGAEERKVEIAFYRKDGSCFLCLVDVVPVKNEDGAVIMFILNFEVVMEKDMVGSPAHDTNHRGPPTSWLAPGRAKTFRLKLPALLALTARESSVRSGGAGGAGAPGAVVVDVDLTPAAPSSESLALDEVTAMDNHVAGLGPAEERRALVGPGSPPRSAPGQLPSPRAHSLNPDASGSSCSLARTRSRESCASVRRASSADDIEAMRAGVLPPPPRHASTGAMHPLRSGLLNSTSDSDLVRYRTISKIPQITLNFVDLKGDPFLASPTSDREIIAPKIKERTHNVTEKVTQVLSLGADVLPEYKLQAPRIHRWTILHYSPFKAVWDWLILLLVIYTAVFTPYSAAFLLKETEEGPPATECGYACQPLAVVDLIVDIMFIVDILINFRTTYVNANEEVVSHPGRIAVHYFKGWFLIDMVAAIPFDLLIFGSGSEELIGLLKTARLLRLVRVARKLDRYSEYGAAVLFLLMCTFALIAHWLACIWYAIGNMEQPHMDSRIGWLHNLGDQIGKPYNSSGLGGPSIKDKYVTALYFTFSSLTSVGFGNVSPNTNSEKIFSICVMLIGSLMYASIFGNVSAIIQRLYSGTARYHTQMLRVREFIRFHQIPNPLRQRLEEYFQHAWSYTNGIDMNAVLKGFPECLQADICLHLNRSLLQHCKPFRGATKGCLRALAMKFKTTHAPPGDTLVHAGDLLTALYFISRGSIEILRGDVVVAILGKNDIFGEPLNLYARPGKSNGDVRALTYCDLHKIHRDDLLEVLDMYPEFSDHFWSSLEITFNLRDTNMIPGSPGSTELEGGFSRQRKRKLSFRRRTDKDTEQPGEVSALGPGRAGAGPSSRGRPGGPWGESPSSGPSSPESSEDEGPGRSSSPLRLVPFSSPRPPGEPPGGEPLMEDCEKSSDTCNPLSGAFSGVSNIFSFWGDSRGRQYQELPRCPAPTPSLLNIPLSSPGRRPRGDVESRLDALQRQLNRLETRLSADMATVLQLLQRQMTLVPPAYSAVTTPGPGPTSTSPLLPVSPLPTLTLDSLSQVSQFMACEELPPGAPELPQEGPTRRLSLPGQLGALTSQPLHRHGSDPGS
For `COC(=O)c1c(NC(=O)c2ccco2)sc2c1CCN(C(C)=O)C2`, the “hERG current change (%, negative = inhibition) at 10uM” value is given as -2.22%.

For `CCc1ccc(-c2nc(C(N)=O)c3[nH]c(=O)n(-c4ccccc4OC)c3n2)cc1`, the “hERG current change (%, negative = inhibition) at 10uM” value is recorded as -0.102%.

Turning to `COc1cccc(CNC(=O)CCn2ccc3cc(S(=O)(=O)N4CCC(C)CC4)ccc32)c1`, the “hERG current change (%, negative = inhibition) at 10uM” value is given as -3.69%.

On to `COc1ccc(C(=O)Nc2cccc3c2CCCC3)c(OC)c1`, for which the “hERG current change (%, negative = inhibition) at 10uM” value is 5.99%.

On to `COc1cc(C(=O)NCc2nnc(SCC(=O)Nc3cccc(C(F)(F)F)c3)o2)cc(OC)c1OC`, for which the “hERG current change (%, negative = inhibition) at 10uM” value is -19.7%.

Regarding `O=C(CNC(=O)c1ccccc1)Oc1cccc(Cl)c1`, the “hERG current change (%, negative = inhibition) at 10uM” value came to 17.8%.

Turning to `CCN1CCN(C(=O)c2ccc3c(=O)n(Cc4ccccc4OC)c(=S)[nH]c3c2)CC1`, the “hERG current change (%, negative = inhibition) at 10uM” value is recorded as -8.43%.

Turning to `Cc1n[nH]c(C)c1S(=O)(=O)N(CC(=O)N1CCc2ccccc21)c1ccc(C(C)C)cc1`, the “hERG current change (%, negative = inhibition) at 10uM” value came to 7.14%.

Take `CCOc1ccc(OCC)c(NC(=O)C2CCCN(c3ncccn3)C2)c1` (stereo not drawn): the “hERG current change (%, negative = inhibition) at 10uM” value is reported as -11.5%.

As to `O=C(NCCc1ccccc1)C1CCC(CNS(=O)(=O)c2cccc3cccnc23)CC1` (stereo not drawn), the “hERG current change (%, negative = inhibition) at 10uM” value is -6.89%.

On to `CC(=O)Nc1ccc(NC(=O)c2nc(S(=O)(=O)Cc3cccc(C)c3)ncc2Cl)cc1`, for which the “hERG current change (%, negative = inhibition) at 10uM” value was 2.07%.

Turning to `Cc1nc(N2CCC(C)CC2)c2c(C)c(C(=O)O)sc2n1`, the “hERG current change (%, negative = inhibition) at 10uM” value was -0.111%.

In the case of `Cc1ccc(CN2CCCC(C(=O)c3cccc(C(F)(F)F)c3)C2)o1` (stereo not drawn), the “hERG current change (%, negative = inhibition) at 10uM” value was -19.3%.

Regarding `COCCn1c(=N)c(S(=O)(=O)c2ccc(F)cc2)cc2c(=O)n3ccccc3nc21`, the “hERG current change (%, negative = inhibition) at 10uM” value is given as -25.5%.

With `COc1ccc(CN(C)C(=O)C2CCN(C(=O)Nc3ccccc3)CC2)cc1OC`, the “hERG current change (%, negative = inhibition) at 10uM” value is listed as -1.53%.

In the case of `Cc1cc(-c2ccc3c(c2)COc2c4ccccc4nn2-3)on1`, the “hERG current change (%, negative = inhibition) at 10uM” value turned out to be 7.49%.

`CC(C)OC(=O)CN1C(=O)C(=O)c2ccccc21`: the “hERG current change (%, negative = inhibition) at 10uM” value is -4.72%.

`COc1ccc(N2CCN(S(=O)(=O)c3cc4c5c(c3)C(C)C(=O)N5CCC4)CC2)cc1` (stereo not drawn): the “hERG current change (%, negative = inhibition) at 10uM” value is 3.36%.

With `N#Cc1cnn(-c2nc3sc4c(c3c(=O)[nH]2)CCCC4)c1N`, the “hERG current change (%, negative = inhibition) at 10uM” value was 19.6%.

Regarding `C[C@@H](CN1C(=O)C(=O)NC[C@@H]1Cc1ccc(O)cc1)NC(=O)Cc1ccccc1`, the “hERG current change (%, negative = inhibition) at 10uM” value came out at 10.1%.

Take `COc1cccc(CC2(CO)CCCN(C(=O)c3cc[n+]([O-])cc3)C2)c1` (stereo not drawn): the “hERG current change (%, negative = inhibition) at 10uM” value is on record as 10.4%.

As for `CCOC(=O)N1CCN(C(=O)CN(Cc2ccc(Cl)cc2)S(=O)(=O)c2ccc(C)cc2)CC1`, the “hERG current change (%, negative = inhibition) at 10uM” value is -42.8%.

For the compound `CC(=O)Nc1ccc(S(=O)(=O)NNC(=O)CCc2ccccc2)cc1`, the “hERG current change (%, negative = inhibition) at 10uM” value is -3.34%.

`Cc1ccccc1NC(=O)Cn1nnc2sc3c(c2c1=O)CC(C)(C)OC3`: the “hERG current change (%, negative = inhibition) at 10uM” value was -35.2%.

With `CCC(=NC(CC)CO)C1=C(O)CC(C)(C)CC1=O` (stereo not drawn), the “hERG current change (%, negative = inhibition) at 10uM” value is on record as -1.12%.

On to `Fc1ccc(Nc2ncnc3sc4c(c23)CCC4)cc1F`, for which the “hERG current change (%, negative = inhibition) at 10uM” value is given as -7.96%.

For the compound `O=C(c1ccc(O)cc1)c1ccc(O)cc1O`, the “hERG current change (%, negative = inhibition) at 10uM” value is -18.6%.

Consider `CCS(=O)(=O)N1CCC(C(=O)NCc2ccc(OC)cc2)CC1`, for which the “hERG current change (%, negative = inhibition) at 10uM” value was -5.4%.

Regarding `COCCn1c(=S)[nH]c2cc(C(=O)N3CCC(C(N)=O)(N4CCCCC4)CC3)ccc2c1=O`, the “hERG current change (%, negative = inhibition) at 10uM” value came to 2.37%.

Regarding `CC(C)(C)CC(C)(C)NC(=S)Nc1ccc2nc(-c3ccccn3)c(-c3ccccn3)nc2c1`, the “hERG current change (%, negative = inhibition) at 10uM” value is listed as -8.68%.

Consider `Cc1cc(C(=O)Nc2ccc(C)c(C)c2)n(-c2ccccc2)n1`, for which the “hERG current change (%, negative = inhibition) at 10uM” value was -5.82%.

As to `Nc1ncnc(NC2CCS(=O)(=O)C2)c1[N+](=O)[O-]` (stereo not drawn), the “hERG current change (%, negative = inhibition) at 10uM” value is given as 8.13%.

With `Cc1coc2c(C)c3oc(=O)c4c(c3cc12)CCCC4`, the “hERG current change (%, negative = inhibition) at 10uM” value stood at 9.91%.

For the compound `CN1CCCN(Cc2ccc(Cl)cc2Cl)CC1`, the “hERG current change (%, negative = inhibition) at 10uM” value is -39%.

Regarding `Cc1ccccc1NC(=O)NNC(=O)c1ccc2ccccc2c1`, the “hERG current change (%, negative = inhibition) at 10uM” value worked out at 11.7%.

For the compound `COC(=O)c1ccc(Sc2ccccc2NS(=O)(=O)c2ccc(OC)cc2)nc1`, the “hERG current change (%, negative = inhibition) at 10uM” value is reported as 9.67%.

As for `COc1ccc(-c2cnc3nc(/N=C/N(C)C)nn3c2/N=C/N(C)C)cc1`, the “hERG current change (%, negative = inhibition) at 10uM” value worked out at 9.65%.

For `O=C(O)c1ccc(N2C(=O)CC(SC(=NCc3ccc4c(c3)OCO4)Nc3ccc(F)cc3)C2=O)cc1` (stereo not drawn), the “hERG current change (%, negative = inhibition) at 10uM” value came to 25.7%.

On to `COc1ccc2nc(COC(=O)c3cccs3)c(C(C)=O)[n+]([O-])c2c1`, for which the “hERG current change (%, negative = inhibition) at 10uM” value was 13.2%.

`COc1cccc(S(=O)(=O)NCc2ccc(C(=O)Nc3ccc(Cl)cc3)cc2)c1`: the “hERG current change (%, negative = inhibition) at 10uM” value is -3.12%.

Take `Cc1c(OCC(=O)NCc2cccnc2)ccc2c3c(c(=O)oc12)CCCC3`: the “hERG current change (%, negative = inhibition) at 10uM” value was 5.81%.

Regarding `CC(=O)c1ccc(N2CCN(CC(O)c3ccccc3)CC2)cc1` (stereo not drawn), the “hERG current change (%, negative = inhibition) at 10uM” value is -11.6%.
